Measurements as given in US20220403048A1, “BINDING MOLECULES TO ARGINASE II [ARG2]” (Cancer Research Technology Limited, priority 2019, published 2022).

How the values were obtained:
[1] = molecular target: T1, recombinant human trimeric ARG2 enzyme (Homo sapiens, UniProt P78540, E275H/R327K); assay: Direct binding HTRF assay, human trimeric ARG2; conditions: purified scFv, FIG. 1A
T1 construct: His10 (after a GGG linker) (C); made in house; host or cells: E. coli BL21 (DE3)
T1 sequence (P78540 with tags, fused parts or gaps E275H/R327K): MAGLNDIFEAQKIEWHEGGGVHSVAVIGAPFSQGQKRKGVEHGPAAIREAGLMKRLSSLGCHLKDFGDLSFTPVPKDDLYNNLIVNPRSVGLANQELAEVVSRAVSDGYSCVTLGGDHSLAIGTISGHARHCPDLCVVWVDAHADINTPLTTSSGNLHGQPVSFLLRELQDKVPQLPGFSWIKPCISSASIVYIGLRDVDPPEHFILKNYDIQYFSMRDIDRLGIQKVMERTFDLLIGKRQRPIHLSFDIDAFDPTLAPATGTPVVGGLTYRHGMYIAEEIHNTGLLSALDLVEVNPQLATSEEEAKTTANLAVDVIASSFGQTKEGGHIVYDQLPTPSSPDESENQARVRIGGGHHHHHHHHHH
Procedure: Unpurified scFv from periplasmic preparations were screened in a homogeneous time-resolved fluorescence (HTRF™, CisBio Bioassays, France) binding assay using a Pherastar plate reader (BMG Labtech, Germany). In this assay, binding of unpurified scFv to recombinant human trimeric ARG2 enzyme was assessed by measuring the fluorescence resonance energy transfer (FRET) between the c-myc tagged scFv and the biotinylated enzyme using streptavidin cryptate and anti-c-myc-XL665 detection reagents (CisBio International, France; cat: 610SAKLB and 61 MYCXLB respectively). […] Assay plates were incubated overnight at 4° C. prior to reading time resolved fluorescence on a Pherastar plate reader ([…]) using an excitation wavelength of 320 nm and measuring the emission at 620 nm and 665 nm (100 flashes).
Data were analysed by calculating % Delta F values for each sample. % Delta F was determined according to equation 1.
The scFv with unique protein sequences were expressed in E. coli and purified by affinity chromatography (essentially as described (Bannister et al., 2006)). The ARG2 binding profile of each purified scFv was determined by testing a dilution series of the purified scFv in the HTRF™ assay described in section 1.4, substituting the unpurified scFv periplasmic preparation with the purified scFv. […] Data were analysed by calculating the % Delta F values as described in section 1.4. […]

[2] = molecular target: T2, recombinant human trimeric ARG1 enzyme (Homo sapiens, UniProt P05089); assay: Direct binding HTRF assay, human trimeric ARG1; conditions: purified scFv, FIG. 1B
T2 construct: Avi tag (N); His10 (after a GGG linker) (C); made in house; host or cells: E. coli BL21 (DE3)
T2 sequence (P05089 with tags, fused parts or gaps): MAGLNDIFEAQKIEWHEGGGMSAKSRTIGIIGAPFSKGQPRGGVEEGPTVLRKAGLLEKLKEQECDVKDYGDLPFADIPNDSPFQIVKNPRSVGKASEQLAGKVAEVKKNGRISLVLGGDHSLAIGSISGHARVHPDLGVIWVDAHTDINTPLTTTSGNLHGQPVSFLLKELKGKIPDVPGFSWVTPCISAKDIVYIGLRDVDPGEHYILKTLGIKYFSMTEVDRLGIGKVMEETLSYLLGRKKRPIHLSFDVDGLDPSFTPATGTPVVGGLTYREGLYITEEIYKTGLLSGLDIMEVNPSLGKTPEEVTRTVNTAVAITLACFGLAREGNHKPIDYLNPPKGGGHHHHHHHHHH

B1: C0020187: anti-ARG2 antibody, parent lead isolation clone, VH SEQ ID NO: 12, VL SEQ ID NO: 17 (antibody, listed as Homo sapiens, V domains shown)
VH: [about 100 residues not given here]LRADLGLYMDLWGRGTLVTVSS
VL: QSVLTQPPSVSAAPGQKVTISCSGSSSNIGNHYVSWYQQLPGTAPKLLIYDNSERPSGIPDRFSGSKSGTSATLGITGLQTGDEADYYCGTWDSSLSALVFGGGTKLTVL
modifications: C0020187
[1]
  binding to biotinylated recombinant human trimeric ARG2 enzyme: bound
[2]
  binding to biotinylated recombinant human trimeric ARG1 enzyme: no binding
